Consider 73 sequences from PMC10726135.

This is one part of the list. At the low end of the ranking, values are background and their order means little. Measured with an extract: partners may take part in the binding.

The experiment has as its target T1, HNF4alpha2 (COS-7 nuclear extract) (UniProt P41235).
T1 sequence: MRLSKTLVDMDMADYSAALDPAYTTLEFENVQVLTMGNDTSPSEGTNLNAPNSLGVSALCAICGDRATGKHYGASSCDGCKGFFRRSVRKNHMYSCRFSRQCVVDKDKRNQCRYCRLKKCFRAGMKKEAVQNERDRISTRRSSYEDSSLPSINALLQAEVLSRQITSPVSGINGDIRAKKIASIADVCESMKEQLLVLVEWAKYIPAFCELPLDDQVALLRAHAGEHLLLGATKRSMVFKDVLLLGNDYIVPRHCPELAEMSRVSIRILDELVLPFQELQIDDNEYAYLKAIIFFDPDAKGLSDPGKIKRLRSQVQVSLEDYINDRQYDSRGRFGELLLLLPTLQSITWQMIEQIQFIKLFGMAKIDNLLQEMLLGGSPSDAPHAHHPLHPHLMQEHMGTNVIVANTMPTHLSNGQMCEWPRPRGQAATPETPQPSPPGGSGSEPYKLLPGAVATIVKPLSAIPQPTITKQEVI
In words: protein-binding microarray. The conditions noted are these: COS-7 nuclear extract on double-stranded Agilent 4x180k PBM; binding buffer, salt, pH and temperature not given; high values mean tight binding; double strand, one strand shown; sequences stand for … in …GCCTAGGGAGATTAGAGTATCGGTCGA
Turning to TCGCGAATCTGGCTAATGCATGTCCCTCCT, the binding signal (log2 normalized intensity) came to 0.0982.

With TTAATTTAGCACTTAGTTCCCCAAATATTC, the binding signal (log2 normalized intensity) stood at 1.5.

Turning to TCACTGCTCTGGCCACTCCCTGGGCAGTGC, the binding signal (log2 normalized intensity) was -1.05. For GGTGAGAGGGCTCTGTCTGCTGGGCCTTCA, the binding signal (log2 normalized intensity) is -1.1. The value for GGCTCAGGTTGCTGCCAGAGGGTGGCAGCA was -1.07. The value for CCAGTTCTGTGTACAAAGCCCCATATTCAT was 1.96; that for ACAAAAACTGTTTCTATGTGACCTTCACCC was 5.26; that for CTCAAGGCAAGTTGCTTCCACCTATGAGTC was -0.669.

For the sequence CGACCTGCTGGGCTGCATTCCCAGATGGTT, the binding signal (log2 normalized intensity) is -1.13. Take CTGGGAACAAGTTCTGCAGACTCCCTAGAA: the binding signal (log2 normalized intensity) was -0.99. The value for GGCTAGATTGCAACCAAGTCCATCTGTATT was 0.676; that for GGCCTACTTAGTCCAGGTTTAGCAAGAATA was -1.18.

As for TGGAGATAATAGGAGATAATAATACTTATC, the binding signal (log2 normalized intensity) is -1.05.

Consider TCAGATTCCTCACTGATAAAACTGGAATAA, for which the binding signal (log2 normalized intensity) was 0.496. Regarding GCCTGCCTGCCAACTCCACGCCCGCCGCCA, the binding signal (log2 normalized intensity) is -0.921. The value for AGGCCTGGAACCTGTCTGACAGGATGAATT was -0.627; that for TTATCTTCTCCCCTGCCAAATCATGGAGGT was 1.43.

As to AAATGTCCTGAGTGATTGTAGTGTCATTGT, the binding signal (log2 normalized intensity) came out at 2.45. The value for TACTTTGGACTGGGGACCTGGTCTGAGATA was 1.75. Turning to CGCGCGGGAGGAGGAGACAAAGGCCGCGCC, the binding signal (log2 normalized intensity) came to 2.07. The value for TGACTGTGATACCAGGGGTCATTTTATGGG was 2.84; that for AAGGAGGTGAACTTTGAGACTATCCTTGGA was 2.93.

For the sequence GAGTCTTAGAGTCCAGACACAAAGAGACAA, the binding signal (log2 normalized intensity) is -1.13. Regarding TTATTTAGTAGTGGCAAGAGAAGCCCCATG, the binding signal (log2 normalized intensity) is -0.71. The value for AGTGTGCACTTTGCACCTGGGCTGGAAAGG was 2.89; that for GGGGAAACAAAATAATAGTTGACCTTTGAG was 5.9; that for CTGTTTTGGATTTTAAAAGCCCTCAAATAC was 0.578. The value for ACCACAGCGGGGCCTCTGTGTGGGGCTGAT was -0.278. The value for AAAGCCATGAAGCAATTCTGAGCCCAACCT was -1.17; that for ATCATCTCTTGTCTGGAATACCTTCTGCAT was 0.502; that for TCTCCATTCAGCATTGCTTGGGAGCAGTCC was -0.474.

With TGAGCAGGATTATAGTTTATCTACCTTTGT, the binding signal (log2 normalized intensity) amounted to 1.29. The value for AGTGGCCCAGTGTCTCTGGGCGCTGGGAAG was -0.864; that for TGTTTGTTTCACTAATGTAGATTTTCTCTG was -0.0729; that for AACTGACTGCATTCCCTTTCTCCTCCCCTC was 3.07. The value for TCTGTTGTCTCTGTAAATAAATGTCATTTA was 1.65; that for CTGCCTGTGCTGTGGCTGCCAAGACACAGA was -1.14; that for GCGAGTCCAGCCAGGTTGCATCAGCTGGGC was -1.11.

Consider CAGCAGTAACCCCCCAGGAGCGAGTCAAGG, for which the binding signal (log2 normalized intensity) came out at 2.92. As for CTCTAGACTCCAGCTAAAGCCTGCTCGTTG, the binding signal (log2 normalized intensity) was -1.14.

For the sequence ACACCTGCCTTTGATCAGGGACCTTTGTTC, the binding signal (log2 normalized intensity) stood at 4.59. The value for GGCAGGAGTGGGAGGCTGGGGCCTCCTGGC was -1.12; that for CCGGAGCGGCGGACCCGGCGGACCGGGGGG was -1.1; that for GGCCGTAAAGATAAGAACGCTAGACACTGG was -1.04. The value for CTAGCCTCGAGATAACCCACCTCCGGCCGG was -1.16. The value for GAGTCATAAAGGGCAGGAACATCAGACACA was -0.999; that for TAGACTTTGGACCTGGCCTGCGGGGTCAGG was 5.39; that for AAATGGAGCAGCTCTGTATTGAGATAAGCA was -1.04.

For TACTGCAACCTGTTTTACCAGGAAGGGCTT, the binding signal (log2 normalized intensity) is -1.02. The value for AATTCCAGCTTCCCCACTTATTACCGGTGT was 1.24.

As for TGGACTCTGCAAGGAAGGTGGGGGCCGCCC, the binding signal (log2 normalized intensity) was 0.449. The value for ACAGCAACTAGCAACTTGGACCTTGATAGG was 3.87; that for AGCAGATGGCCAGCCTTTGGACTTTGAACT was 10.7; that for CATTGACTTTGCCTTTTGGCTAAAGTCCAA was 4.16.

As for GTCCAAAGGTCAGCAAGCCTGGAGTTCTGA, the binding signal (log2 normalized intensity) was 4.22.

As to AGGGAGGCTTTTGCAGTCACTCTCTAGAAT, the binding signal (log2 normalized intensity) is -0.882. The value for ATTGAATGTGTTACACCTGTGTGTACTGGG was 1.84; that for CTCCAAAGGCTGTTTGCACCGTGTGCTTTG was 0.866.

As to GGCTAGGGCAAAGATCAAACATACAGTAAA, the binding signal (log2 normalized intensity) came out at 1.77. The value for ATATAAGGTCCAACTGACATCTGGAAATGT was 0.608. For the sequence TCTGGGGCCCTCTTCTGCATTCTTCTTCTA, the binding signal (log2 normalized intensity) was -1.1. The value for GATCTCCTGCACCTGAACTTTGCTCTGTGA was 4.56. The value for GTCCCAGTAGATAACTTCAAGGAGCTCGGC was -0.627. The value for CTTTGCCCTTTGTTTACATAGCTCCTTCAT was 1.69; that for ACATTATCTAACAAGAAGTCTGAAGGCAGG was -0.511. Turning to GGTTAGCAAGGGCCCCCACTAGAGAGACCG, the binding signal (log2 normalized intensity) was found to be 0.957.

For the sequence GAAAGCCAGCAGGGGCTGCTGGGAGTTGTA, the binding signal (log2 normalized intensity) worked out at 1.12. The value for TGCCCAGCTTGAATCACTCACTGACCTCTT was 3.98; that for ATCCTTTACCTCCACCTCCAAGGTCCCCAA was 3.52. Regarding ACTCCTCGTGGCCCCTGGGTCGTTGGTGCT, the binding signal (log2 normalized intensity) amounted to 1.22.

For CCGGCATGATCTTGCTCTCTTGTGCTCATG, the binding signal (log2 normalized intensity) was 0.804. Consider CCTCTGCATTTGCTCCCTGACTTGGTTTAC, for which the binding signal (log2 normalized intensity) came out at 1.67. For the sequence ATTTTCTAGGAGAATCACTAGGACATATAT, the binding signal (log2 normalized intensity) was -1.11.
